The text below walks through data of ChEMBL document CHEMBL4888484, “Replenishing the malaria drug discovery pipeline: Screening and hit evaluation of the MMV Hit Generation Library 1 (HGL1) against asexual blood stage Plasmodium falciparum ,using a nano luciferase reporter read-out” (2022).

Out of some 150,000 compounds screened, about 540 (0.36%) showed an effect of 50% or more. The list shows a part of the results.

The term % Inhibition denotes the drop in the measured response relative to a control, in per cent.

This test has as its system Plasmodium falciparum. Briefly: Primary screen in NF54 nanoGlo assay, in single point, at 2uM, 72h; a lower Z score goes with more inhibition. Type of test: functional, Erythrocyte. To be noted: timepoint 72 hour.
For `CCc1noc(CN(C)CCc2nc3ccccc3c(=O)[nH]2)n1`, the “% Inhibition” value is -15% and the Z score was determined as 2.64.

With `Cc1ccn(CCNc2nccc(-c3c(C)nn(C)c3C)n2)n1`, the “% Inhibition” value is 0% and the Z score came out at 0.01.

With `COc1ccc(C(=O)Nc2cc(-c3cc(C)n(-c4ccccc4F)c3C)nn2-c2ccccc2)cc1OC`, the “% Inhibition” value worked out at 14% and the Z score is given as -2.66.

Regarding `O=C(Cc1n[nH]c(=O)c2cc(-c3ccccc3)nn12)Nc1ccc(F)c(F)c1`, the “% Inhibition” value was -3% and the Z score is 0.43.

In the case of `NCC1(c2ccccc2)CCCCCC1`, the “% Inhibition” value is -20% and the Z score stood at 2.04.

On to `O=C(Cn1cnc2nc(N3CCOCC3)sc2c1=O)Nc1ccc(F)cc1`, for which the “% Inhibition” value is -3% and the Z score amounted to 0.31.

Regarding `O=S(=O)(Cc1ccc(F)cc1)N1CC(C(F)F)C1`, the “% Inhibition” value is listed as -8% and the Z score is listed as 0.94.

As for `C[C@@H](O)[C@@H]1NC(=O)[C@@H]2C[C@H](NC(=O)c3ccc(Cl)cc3)CN2C1=O`, the “% Inhibition” value is -10% and the Z score amounted to 1.91.

On to `CCCCc1nc(CN2CCC(c3nc(C)n[nH]3)CC2)c[nH]1`, for which the “% Inhibition” value is -8% and the Z score amounted to 1.34.

Consider `CC(C)c1noc(N2CCc3sccc3C2)n1`, for which the “% Inhibition” value is -11% and the Z score turned out to be 1.43.

In the case of `O=C(Nc1cccc(-c2ccc3c(c2)OCCO3)n1)c1c[nH]nn1`, the “% Inhibition” value is -11% and the Z score stood at 1.86.

As for `CCc1ccc(CN2CCN(c3cnc(CO)cn3)CC2)s1`, the “% Inhibition” value turned out to be 0% and the Z score is reported as -0.05.

Take `CN(CCC1CCOCC1)c1nnc(-c2ccccn2)s1`: the “% Inhibition” value is reported as -22% and the Z score came out at 3.34.

Consider `CCCCNS(=O)(=O)c1cc(C)c(Br)cc1OC`, for which the “% Inhibition” value is on record as 33% and the Z score is listed as -3.69.

Regarding `CS(=O)(=O)c1ccccc1N1CCO[C@H](c2ccsc2)C1`, the “% Inhibition” value is listed as -2% and the Z score was 0.31.

Consider `COCCN1CCN2C(=O)[C@H](Cc3ccccc3)N(C(=O)CCn3cccn3)C[C@H]2C1=O`, for which the “% Inhibition” value is reported as -18% and the Z score was 1.59.

Take `Cc1c(NC(=O)C2=COCCC2)cccc1N(C)C`: the “% Inhibition” value was -6% and the Z score stood at 0.99.

Consider `CN(C)[C@@H](CNS(=O)(=O)c1cc2c(cc1Br)NC(=O)CO2)c1ccc(F)cc1`, for which the “% Inhibition” value was -31% and the Z score turned out to be 3.17.

`Cc1ccc(-n2nc(C(=O)N(C)C3CCCCC3)c(=O)n(Cc3cccc(Cl)c3)c2=O)cc1`: the “% Inhibition” value is reported as -14% and the Z score worked out at 1.21.

Turning to `O=S(=O)(c1cnn(CC2CC2)c1)N1CCCN(c2ccc(F)c(F)c2)CC1`, the “% Inhibition” value is given as -6% and the Z score came out at 0.47.

Turning to `O=C(NCCN1CCCCC1=O)c1cc(Cn2ccc3ccccc32)[nH]n1`, the “% Inhibition” value came out at 2% and the Z score is -0.34.

As for `CCCc1cnc(C)nc1N1CC[C@H](N2CCOCC2)[C@H](CCC(=O)O)C1`, the “% Inhibition” value is 7% and the Z score is -1.31.

Consider `CC(C)c1ccc(O[C@@H](C)c2nc(C3CC3)no2)cc1`, for which the “% Inhibition” value is -8% and the Z score is 1.17.

As to `Cc1ccc(-c2nc(CNC(C)C(C)n3cccn3)cs2)o1` (stereo unspecified), the “% Inhibition” value is on record as -8% and the Z score came out at 0.83.

`c1cn(C[C@@H]2CCCN2c2nc(C3CCCC3)ns2)nn1`: the “% Inhibition” value stood at 32% and the Z score was -4.66.

For `O=C(CNC(=O)c1cccnc1)NC1CCC(Oc2ncccc2Cl)CC1` (stereo unspecified), the “% Inhibition” value is on record as -5% and the Z score was found to be 0.47.

Take `Cc1nc(NC(=O)CC2=CCCCC2)n(C)n1`: the “% Inhibition” value amounted to 5% and the Z score is recorded as -0.53.

For the molecule `O=C(CC1CCCO1)N1CCc2sccc2C1c1ccccc1` (stereo unspecified), the “% Inhibition” value worked out at 6% and the Z score was -1.2.

As for `COc1cc(C)ccc1OS(=O)(=O)CC12CCCN(CC1)C2` (stereo unspecified), the “% Inhibition” value was -12% and the Z score amounted to 1.67.

Turning to `O=C(Nc1nc(-c2ccc(Cl)s2)ns1)c1ccccc1`, the “% Inhibition” value worked out at 5% and the Z score is on record as -0.79.

Consider `CCc1nn(C)c2[nH]nc(NC(=O)c3cc(C(C)C)n(C)n3)c12`, for which the “% Inhibition” value was -1% and the Z score came to 0.09.

In the case of `CCC[C@@H](C#N)NC(=O)c1ccnc(C(F)(F)F)c1N`, the “% Inhibition” value is given as 2% and the Z score was -0.37.

For `O=S(=O)(Nc1ccc2nncn2c1)c1cc(F)ccc1Cl`, the “% Inhibition” value is given as 27% and the Z score is -3.64.

In the case of `O=C(NCC1CCCOC1)C1CCCN1CC(F)(F)F` (stereo unspecified), the “% Inhibition” value is 4% and the Z score is reported as -0.56.

Consider `CN(C)CCNC(=O)c1ccc(-c2c(-c3ccc(F)cc3)ncn2C2CCCC2)o1`, for which the “% Inhibition” value is given as 5% and the Z score is listed as -0.71.

In the case of `O=C(CCCC(=O)N1CCC2(CC1)CC2(F)F)c1ccccc1`, the “% Inhibition” value is 15% and the Z score is on record as -1.94.

For `O=c1nc(-c2ccccc2)c(-c2ccccc2)nn1C[C@H](O)c1ccccc1F`, the “% Inhibition” value is given as -10% and the Z score is given as 1.91.

On to `O=C1NCCCC[C@@H]1N(Cc1cccc(OCCc2ccccc2F)c1)S(=O)(=O)c1cccs1`, for which the “% Inhibition” value was -1% and the Z score stood at 0.24.

In the case of `Cc1noc2ncnc(N3CCN(S(C)(=O)=O)CC3)c12`, the “% Inhibition” value was found to be 11% and the Z score is -1.36.

On to `Cc1cccc(CN2[C@H](CNC(=O)c3cc(C)on3)CN(C)C(=O)[C@@H]2C)c1`, for which the “% Inhibition” value is 7% and the Z score is reported as -0.97.

As to `COC(C)(C)CCNC(=O)c1ccc(O)cc1C`, the “% Inhibition” value was -25% and the Z score is 2.2.

Turning to `O=C(c1cccc(-c2nccs2)c1)N1CCCO[C@@H](CN2CCCC2)C1`, the “% Inhibition” value is on record as -13% and the Z score was 1.42.

For the molecule `Cc1nc(CC(C)C)c(C(=O)Nc2snc(C)c2C#N)s1`, the “% Inhibition” value amounted to 20% and the Z score is on record as -2.49.
